Laboratory results reported in PubChem BioAssay AID1745853 (National Center for Advancing Translational Sciences (NCATS), 2022).
This is one part of the list. Shown are side measurements of this screen, not its main read-out; they come without a call.

How the values were obtained:
Assay in all cases: Primary Screen for Target Class Profiling of Small Molecule Inhibitors of Methyltransferases
[1] = molecular target: Glycine N-methyltransferase (Homo sapiens) (UniProt Q14749); conditions: purified enzyme, MTase-Glo SAH luminescence; measured here: GNMT inhibition; at 40 µM; stronger effect = lower value
Procedure, shortened: (§1)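 Each enzyme was reacted with SAM and its substrate, with compounds tested once at 40 uM; SAH formed was read by MTase-Glo luminescence.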

[2] = molecular target: Guanidinoacetate N-methyltransferase (Homo sapiens) (UniProt Q14353); conditions: purified enzyme, MTase-Glo SAH luminescence; measured here: GAMT inhibition; at 40 µM; stronger effect = lower value
Procedure, shortened: as §1

[3] = molecular target: Histamine N-methyltransferase (Homo sapiens) (UniProt P50135); conditions: purified enzyme, MTase-Glo SAH luminescence; measured here: HNMT inhibition; at 40 µM; stronger effect = lower value
Procedure, shortened: as §1

[4] = molecular target: Nicotinamide N-methyltransferase (Homo sapiens) (UniProt P40261); conditions: purified enzyme, MTase-Glo SAH luminescence; measured here: NNMT inhibition; at 40 µM; stronger effect = lower value
Procedure, shortened: as §1

[5] = molecular target: Phenylethanolamine N-methyltransferase (Homo sapiens) (UniProt P11086); conditions: purified enzyme, MTase-Glo SAH luminescence; measured here: PNMT inhibition; at 40 µM; stronger effect = lower value
Procedure, shortened: as §1
% is scaled to controls: 0 for no effect and ±100 for the full control effect.

Row | Structure (SMILES) | activity change, negative = inhibition [1] | activity change, negative = inhibition [2] | activity change, negative = inhibition [3] | activity change, negative = inhibition [4] | activity change, negative = inhibition [5]
1 | CC(C)C1c2cccn2CCN1C(=O)Nc1cccc(Cl)c1 (stereo not given) | 2.39% | 0% | -1.91% | -2.86% | -1.66%
2 | O=C(NCc1ccncc1)c1ccc(-c2ccsc2)nc1 | 11.4% | 2.64% | 10.1% | 6.6% | 8.84%
3 | COCCN1C(=O)c2c(-n3cccc3)c3cc(C)ccc3n2CC1(C)C(=O)NCCC(C)C (stereo not given) | 2.43% | 2.75% | 2.05% | -12% | -5.11%
4 | C[C@@H]1O[C@@H](O[C@H]2[C@H](OC(=O)[C@]34CCC(C)(C)C[C@H]3C3=CCC5[C@@]6(C)C[C@H](O)[C@H](O[C@@H]7O[C@H](CO)[C@@H](O)[C@H](O)[C@H]7O)[C@@](C)(CO)C6[C@H](O)C[C@@]5(C)[C@]3(C)CC4)OC[C@H](O)[C@@H]2O)[C@H](O)[C@H](O)[C@H]1O[C@@H]1OC[C@@H](O)[C@H](O[C@@H]2OC[C@](O)(CO)[C@H]2O)[C@H]1O (stereo not given in full) | 4.12% | 4.44% | 10.8% | -8.52% | 7.94%
5 | CCOC(=O)c1cc2n(n1)CC(C)(C(=O)NCc1ccccc1OC)N(Cc1ccccc1F)C2=O (stereo not given) | 6.53% | 1.52% | 13.5% | 4.61% | 8.32%
6 | Cc1cccc(OCC(=O)NCc2nnc3c(-c4nc(C)no4)cccn23)c1 | -6.24% | -1.92% | -0.778% | -4.52% | -17.8%
7 | CC(=O)O[C@@]1(C)C[C@@H](O)[C@]2(O)C=CO[C@@H](O[C@@H]3O[C@H](CO)[C@@H](O)[C@H](O)[C@H]3O)[C@@H]21 | 4.17% | 7.97% | 5.87% | -3.21% | 7.25%
8 | CN(C)C(=O)C1=NOC2CN(C(=O)C3CC3)CC12 (stereo not given) | -1.55% | -1.03% | -0.373% | -8.06% | -2.34%
9 | COCCCN1C(=O)c2ccc(-c3ccco3)n2CC1(C)C(=O)NC1CCCCC1 (stereo not given) | 2.96% | 3.58% | 6.16% | 7.87% | 0.98%
10 | COc1ccccc1Oc1ncccc1CNC(=O)Nc1cccc(C#N)c1 | -2.51% | -1.61% | 1.27% | -8.29% | -1.31%
11 | CCOc1ccccc1CN1C(=O)c2cc(C(C)(C)C)nn2CC1(C)C(=O)NCc1ccccc1 (stereo not given) | 6.9% | 0% | 6.18% | -10.7% | -0.97%
12 | COc1ccc(CNCC2(CO)C[C@@H](O)[C@@H](O)C2)cc1 (stereo not given in full) | -3.73% | -6.72% | -1.88% | -10.3% | -3.99%
13 | Cc1ccc(CN2C(=O)c3cc4ccccc4n3CC2(C)C(=O)NCCC(C)C)cc1 (stereo not given) | 3.69% | 0% | 5.11% | 2.86% | 1.18%
14 | O=C(CSc1nnc2n(Cc3ccccc3)c(=O)c3ccccc3n12)NCc1ccccc1 | 1.33% | 0% | 5.18% | -2.87% | -1.11%
15 | CC(C)Cn1c(CN(C)CCC2CCCCO2)cnc1S(=O)(=O)Cc1ccccc1 (stereo not given) | -4.48% | 1.46% | -2.39% | -5.13% | -7.55%
